B1: Caulobacter ParB omega fusion; a variant is named by its letters at X, in order, B8GW30 (parent)
chain: MESVVVGEPGMSEGRRGLGRGLSALLGEVDAAPAQAPGEQLGGSREAPIEILQRNPDQPRRTFREEDLEDLSNSIREKGVLQPILVRPSPDTAGEYQIVAGERAWRAAQRAGLKTVPIMVRELDDLAVLEIGIIENVQRADLNVLEEALSYKVLMEKFERTQENIAQTIGKSXSHVANXMRLLXLPDEVQSYLVSGELTAXHARAIAAAADPVALAKQIIEGGLSVRETEALARKAPNLSAGKSKGGRPPRVKDTDTQALESDLSSVLGLDVSIDHRGSTGTLTITYATLEQLDDLCNRLTRGI

In all, about 81,000 sequences were measured (“one-hybrid fitness for binding parS DNA”: median about -0.17, highest 2% from about 0.51 on). This is one part of the list.

Data on 153 variants can be found in a collection of fitness landscapes (doi:10.1016/j.celrep.2020.107928).

This test covers variants of B1. Nature of the test: one-hybrid fitness for binding parS DNA (scaled: cognate 1, non-cognate 0); higher = stronger binding. The following applies: with parS DNA site. In outline:
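In E. coli USO, a HIS3 reporter with its site placed 19 bp from the promoter was used to select Caulobacter ParB variants randomised at four specificity codons. Growth lasted 48 hours at 37°C on histidine-free M9 containing 0.1 mM IPTG and 5 mM 3-AT. Fitness was taken as the log change in variant-to-wild-type read ratio from Illumina sequencing of pre- and post-selection plasmids, rescaled between the non-cognate and cognate sites.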
PHDI: the “one-hybrid fitness for binding parS DNA” value is ≤ 0.2.

In the case of HVTR, the “one-hybrid fitness for binding parS DNA” value is ≤ 0.2.

Regarding QHRQ, the “one-hybrid fitness for binding parS DNA” value is ≤ 0.2.

For the variant YVGY, the “one-hybrid fitness for binding parS DNA” value was ≤ 0.2.

For KPYI, the “one-hybrid fitness for binding parS DNA” value was ≤ 0.2.

In the case of KPGC, the “one-hybrid fitness for binding parS DNA” value is ≤ 0.2.

With HNNE, the “one-hybrid fitness for binding parS DNA” value was ≤ 0.2.

Regarding TWYA, the “one-hybrid fitness for binding parS DNA” value was ≤ 0.2.

In the case of PVLP, the “one-hybrid fitness for binding parS DNA” value is ≤ 0.2.

As to AHST, the “one-hybrid fitness for binding parS DNA” value is ≤ 0.2.

As for GAWR, the “one-hybrid fitness for binding parS DNA” value was ≤ 0.2.

Regarding IHVA, the “one-hybrid fitness for binding parS DNA” value was ≤ 0.2.

In the case of RGND, the “one-hybrid fitness for binding parS DNA” value was ≤ 0.2.

Regarding NNTS, the “one-hybrid fitness for binding parS DNA” value was ≤ 0.2.

In the case of YNPS, the “one-hybrid fitness for binding parS DNA” value is ≤ 0.2.

In the case of YLGV, the “one-hybrid fitness for binding parS DNA” value was ≤ 0.2.

Take AIRG: the “one-hybrid fitness for binding parS DNA” value is ≤ 0.2.

On to NHTW, for which the “one-hybrid fitness for binding parS DNA” value is ≤ 0.2.

In the case of IATQ, the “one-hybrid fitness for binding parS DNA” value was ≤ 0.2.

As for QHHR, the “one-hybrid fitness for binding parS DNA” value was ≤ 0.2.

As for VQKT, the “one-hybrid fitness for binding parS DNA” value is ≤ 0.2.

Turning to MTSI, the “one-hybrid fitness for binding parS DNA” value is ≤ 0.2.

Turning to MWNR, the “one-hybrid fitness for binding parS DNA” value is ≤ 0.2.

With QKAA, the “one-hybrid fitness for binding parS DNA” value is ≤ 0.2.

Take HICM: the “one-hybrid fitness for binding parS DNA” value is ≤ 0.2.

On to LCPC, for which the “one-hybrid fitness for binding parS DNA” value is ≤ 0.2.

For GKYR, the “one-hybrid fitness for binding parS DNA” value was ≤ 0.2.

As for NERW, the “one-hybrid fitness for binding parS DNA” value was ≤ 0.2.

In the case of LFLL, the “one-hybrid fitness for binding parS DNA” value was ≤ 0.2.

GVVT: the “one-hybrid fitness for binding parS DNA” value is ≤ 0.2.

Regarding HTKC, the “one-hybrid fitness for binding parS DNA” value was ≤ 0.2.

Turning to CRQG, the “one-hybrid fitness for binding parS DNA” value is ≤ 0.2.

In the case of ITNW, the “one-hybrid fitness for binding parS DNA” value is ≤ 0.2.

In the case of TYTG, the “one-hybrid fitness for binding parS DNA” value was ≤ 0.2.

As for SQDR, the “one-hybrid fitness for binding parS DNA” value was ≤ 0.2.

For the variant FTEY, the “one-hybrid fitness for binding parS DNA” value is ≤ 0.2.

On to MGKN, for which the “one-hybrid fitness for binding parS DNA” value was ≤ 0.2.

Regarding LSIA, the “one-hybrid fitness for binding parS DNA” value was ≤ 0.2.

For the variant ANTT, the “one-hybrid fitness for binding parS DNA” value was ≤ 0.2.

With LIGM, the “one-hybrid fitness for binding parS DNA” value is ≤ 0.2.

TRML: the “one-hybrid fitness for binding parS DNA” value was ≤ 0.2.

On to CHTC, for which the “one-hybrid fitness for binding parS DNA” value is ≤ 0.2.

With CSKS, the “one-hybrid fitness for binding parS DNA” value was ≤ 0.2.

With AIPD, the “one-hybrid fitness for binding parS DNA” value is ≤ 0.2.

As for VNEA, the “one-hybrid fitness for binding parS DNA” value was ≤ 0.2.

Consider RMGN, for which the “one-hybrid fitness for binding parS DNA” value turned out to be 0.453.

Take NKYH: the “one-hybrid fitness for binding parS DNA” value was ≤ 0.2.

On to EVNS, for which the “one-hybrid fitness for binding parS DNA” value was ≤ 0.2.

CRCG: the “one-hybrid fitness for binding parS DNA” value is ≤ 0.2.

Take DTNK: the “one-hybrid fitness for binding parS DNA” value is ≤ 0.2.

Consider MVQL, for which the “one-hybrid fitness for binding parS DNA” value was ≤ 0.2.

As to TKIS, the “one-hybrid fitness for binding parS DNA” value is ≤ 0.2.

On to RHKV, for which the “one-hybrid fitness for binding parS DNA” value was ≤ 0.2.

On to NNES, for which the “one-hybrid fitness for binding parS DNA” value was ≤ 0.2.

Regarding SNTC, the “one-hybrid fitness for binding parS DNA” value is ≤ 0.2.

Take YSRF: the “one-hybrid fitness for binding parS DNA” value was ≤ 0.2.

For the variant DHVG, the “one-hybrid fitness for binding parS DNA” value is ≤ 0.2.

For the variant PHVL, the “one-hybrid fitness for binding parS DNA” value is ≤ 0.2.

Regarding FLWS, the “one-hybrid fitness for binding parS DNA” value is ≤ 0.2.

For the variant SMRK, the “one-hybrid fitness for binding parS DNA” value was ≤ 0.2.

Turning to RVPW, the “one-hybrid fitness for binding parS DNA” value is ≤ 0.2.

For the variant RVFL, the “one-hybrid fitness for binding parS DNA” value is ≤ 0.2.

On to GLIC, for which the “one-hybrid fitness for binding parS DNA” value is ≤ 0.2.

Turning to ATKR, the “one-hybrid fitness for binding parS DNA” value is ≤ 0.2.

Consider TYHP, for which the “one-hybrid fitness for binding parS DNA” value was ≤ 0.2.

Consider PIEP, for which the “one-hybrid fitness for binding parS DNA” value was ≤ 0.2.

For QTAI, the “one-hybrid fitness for binding parS DNA” value was ≤ 0.2.

As to SQLV, the “one-hybrid fitness for binding parS DNA” value was ≤ 0.2.

In the case of RWEC, the “one-hybrid fitness for binding parS DNA” value came to 0.556.

For YHPP, the “one-hybrid fitness for binding parS DNA” value is ≤ 0.2.

Take HRNL: the “one-hybrid fitness for binding parS DNA” value was ≤ 0.2.

On to RCVY, for which the “one-hybrid fitness for binding parS DNA” value came to 0.452.

Consider VRHH, for which the “one-hybrid fitness for binding parS DNA” value is ≤ 0.2.

In the case of RTIL, the “one-hybrid fitness for binding parS DNA” value was ≤ 0.2.

With VDKR, the “one-hybrid fitness for binding parS DNA” value is ≤ 0.2.

In the case of GATA, the “one-hybrid fitness for binding parS DNA” value was ≤ 0.2.

In the case of DHVS, the “one-hybrid fitness for binding parS DNA” value is ≤ 0.2.

ADIK: the “one-hybrid fitness for binding parS DNA” value is ≤ 0.2.

Regarding VTWV, the “one-hybrid fitness for binding parS DNA” value was ≤ 0.2.

Consider PLFC, for which the “one-hybrid fitness for binding parS DNA” value was ≤ 0.2.

Regarding QETR, the “one-hybrid fitness for binding parS DNA” value was ≤ 0.2.

Take MTYG: the “one-hybrid fitness for binding parS DNA” value is ≤ 0.2.

RQMS: the “one-hybrid fitness for binding parS DNA” value was determined as 0.998.

In the case of RQVN, the “one-hybrid fitness for binding parS DNA” value came to 0.316.

With YEHN, the “one-hybrid fitness for binding parS DNA” value was ≤ 0.2.

In the case of PCAS, the “one-hybrid fitness for binding parS DNA” value is ≤ 0.2.

Consider GNTG, for which the “one-hybrid fitness for binding parS DNA” value is ≤ 0.2.

EKCM: the “one-hybrid fitness for binding parS DNA” value is ≤ 0.2.

Consider SQYR, for which the “one-hybrid fitness for binding parS DNA” value is ≤ 0.2.

GPMS: the “one-hybrid fitness for binding parS DNA” value is ≤ 0.2.

On to VQCT, for which the “one-hybrid fitness for binding parS DNA” value is ≤ 0.2.

Turning to CIKW, the “one-hybrid fitness for binding parS DNA” value is ≤ 0.2.

For the variant RLRE, the “one-hybrid fitness for binding parS DNA” value is ≤ 0.2.

In the case of PLPR, the “one-hybrid fitness for binding parS DNA” value is ≤ 0.2.

In the case of QITS, the “one-hybrid fitness for binding parS DNA” value is ≤ 0.2.

In the case of DRRN, the “one-hybrid fitness for binding parS DNA” value is ≤ 0.2.

Turning to MLGM, the “one-hybrid fitness for binding parS DNA” value was ≤ 0.2.

ERTL: the “one-hybrid fitness for binding parS DNA” value is ≤ 0.2.

YVDW: the “one-hybrid fitness for binding parS DNA” value is ≤ 0.2.

For DGSM, the “one-hybrid fitness for binding parS DNA” value was ≤ 0.2.

Regarding EQPG, the “one-hybrid fitness for binding parS DNA” value was ≤ 0.2.

As for SGYS, the “one-hybrid fitness for binding parS DNA” value is ≤ 0.2.

For EYQC, the “one-hybrid fitness for binding parS DNA” value is ≤ 0.2.

Consider GFGV, for which the “one-hybrid fitness for binding parS DNA” value was ≤ 0.2.

Consider RHLK, for which the “one-hybrid fitness for binding parS DNA” value was ≤ 0.2.

Regarding QFLC, the “one-hybrid fitness for binding parS DNA” value was ≤ 0.2.

DAHH: the “one-hybrid fitness for binding parS DNA” value was ≤ 0.2.

Take IRFR: the “one-hybrid fitness for binding parS DNA” value is ≤ 0.2.

With AWPT, the “one-hybrid fitness for binding parS DNA” value is ≤ 0.2.

Take MHMT: the “one-hybrid fitness for binding parS DNA” value is ≤ 0.2.

RFIV: the “one-hybrid fitness for binding parS DNA” value was ≤ 0.2.

As for AGTG, the “one-hybrid fitness for binding parS DNA” value was ≤ 0.2.

With CPHG, the “one-hybrid fitness for binding parS DNA” value was ≤ 0.2.

On to STKE, for which the “one-hybrid fitness for binding parS DNA” value was ≤ 0.2.

Consider SSTG, for which the “one-hybrid fitness for binding parS DNA” value is ≤ 0.2.

On to DEHT, for which the “one-hybrid fitness for binding parS DNA” value was ≤ 0.2.

As to AWHM, the “one-hybrid fitness for binding parS DNA” value is 0.283.

Regarding ATCS, the “one-hybrid fitness for binding parS DNA” value was ≤ 0.2.

For the variant LCMS, the “one-hybrid fitness for binding parS DNA” value was ≤ 0.2.

Turning to EWTG, the “one-hybrid fitness for binding parS DNA” value is ≤ 0.2.

Consider QKPE, for which the “one-hybrid fitness for binding parS DNA” value is ≤ 0.2.

GGQS: the “one-hybrid fitness for binding parS DNA” value was ≤ 0.2.

QCTR: the “one-hybrid fitness for binding parS DNA” value was ≤ 0.2.

Regarding DCNR, the “one-hybrid fitness for binding parS DNA” value was ≤ 0.2.

With TGHN, the “one-hybrid fitness for binding parS DNA” value is ≤ 0.2.

For the variant HQRV, the “one-hybrid fitness for binding parS DNA” value was ≤ 0.2.

LTNV: the “one-hybrid fitness for binding parS DNA” value is ≤ 0.2.

On to NRRR, for which the “one-hybrid fitness for binding parS DNA” value was ≤ 0.2.

As for SWRS, the “one-hybrid fitness for binding parS DNA” value is ≤ 0.2.

On to QCPN, for which the “one-hybrid fitness for binding parS DNA” value is ≤ 0.2.

PIHR: the “one-hybrid fitness for binding parS DNA” value was ≤ 0.2.

On to PDNS, for which the “one-hybrid fitness for binding parS DNA” value is ≤ 0.2.

On to CWQL, for which the “one-hybrid fitness for binding parS DNA” value was ≤ 0.2.

With NRIV, the “one-hybrid fitness for binding parS DNA” value is ≤ 0.2.

In the case of SAKV, the “one-hybrid fitness for binding parS DNA” value was ≤ 0.2.

Turning to GFDS, the “one-hybrid fitness for binding parS DNA” value was ≤ 0.2.

Regarding QHRR, the “one-hybrid fitness for binding parS DNA” value was ≤ 0.2.

As for AYND, the “one-hybrid fitness for binding parS DNA” value is ≤ 0.2.

With YVLT, the “one-hybrid fitness for binding parS DNA” value was ≤ 0.2.

In the case of LVLH, the “one-hybrid fitness for binding parS DNA” value is ≤ 0.2.

For the variant EKSG, the “one-hybrid fitness for binding parS DNA” value is ≤ 0.2.

For the variant SCQR, the “one-hybrid fitness for binding parS DNA” value was ≤ 0.2.

LMVP: the “one-hybrid fitness for binding parS DNA” value was ≤ 0.2.

As to QHDC, the “one-hybrid fitness for binding parS DNA” value was ≤ 0.2.

With KKKS, the “one-hybrid fitness for binding parS DNA” value was ≤ 0.2.

On to ITMT, for which the “one-hybrid fitness for binding parS DNA” value was ≤ 0.2.

Take EWDG: the “one-hybrid fitness for binding parS DNA” value is ≤ 0.2.

For the variant EAVM, the “one-hybrid fitness for binding parS DNA” value was ≤ 0.2.

On to YTGF, for which the “one-hybrid fitness for binding parS DNA” value is ≤ 0.2.

With QKTY, the “one-hybrid fitness for binding parS DNA” value is ≤ 0.2.

Turning to FRQT, the “one-hybrid fitness for binding parS DNA” value is ≤ 0.2.

Regarding VGKI, the “one-hybrid fitness for binding parS DNA” value was ≤ 0.2.

As to SSAK, the “one-hybrid fitness for binding parS DNA” value is ≤ 0.2.
